# Experimental data: the supplement of paper PMC4604168 (melanoma cell lines)
# Some of the results follow. Single values are uncertain, as repeats are few or missing.
# System: LB2518-MEL
# Test: cell count relative to DMSO control; melanoma cells; higher = more viable cells
# Settings: library dose: low library concentration; 72 h
# 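Also: cell number obtained by counting DAPI-stained nuclei in high-throughput microscope images with image analysis software, screen run in 1,536-well plates.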
row,SMILES,cell count
1,"C=C(c1ccc(C(=O)O)cc1)c1cc2c(cc1C)C(C)(C)CCC2(C)C [Bexarotene] + Cn1cc(/C=C2\C(=O)Nc3cccnc32)c2ccccc21 [GW441756] (first compound 2 µM, partner dose 0.4 µM)",130%
2,"NC1(c2ccc(-c3nc4ccn5c(=O)[nH]nc5c4cc3-c3ccccc3)cc2)CCC1 + CC(C)CCN1c2nc(Nc3cc(F)c(O)c(F)c3)ncc2N(C)C(=O)C1C [BID1870] (first compound 0.4 µM, partner dose 0.2 µM)",86.9%
3,"CS(=O)(=O)c1ccc(C(=O)Nc2ccc(Cl)c(-c3ccccn3)c2)c(Cl)c1 [vismodegib] + N#Cc1c(O)c2c(-c3ccc(-c4ccccc4O)cc3)csc2[nH]c1=O [A769662] (first compound 1 µM, partner dose 2 µM)",95.4%
4,"CN(c1ncccc1CNc1nc(Nc2ccc3c(c2)CC(=O)N3)ncc1C(F)(F)F)S(C)(=O)=O + COC(=O)c1sccc1S(=O)(=O)Nc1ccc(Nc2ccccc2)cc1OC [GSK0660] (first compound 0.08 µM, partner dose 1 µM)",92.2%
5,"CCCS(=O)(=O)Nc1ccc(F)c(C(=O)c2c[nH]c3ncc(Cl)cc23)c1F + COC(=O)c1sccc1S(=O)(=O)Nc1ccc(Nc2ccccc2)cc1OC [GSK0660] (first compound 0.08 µM, partner dose 1 µM)",88.4%
6,"NC1(c2ccc(-c3nc4ccn5c(=O)[nH]nc5c4cc3-c3ccccc3)cc2)CCC1 + COc1cc(N2CCC(N3CCN(C)CC3)CC2)ccc1Nc1ncc(Cl)c(Nc2ccccc2S(=O)(=O)C(C)C)n1 [NVP-TAE684] (first compound 0.4 µM, partner dose 0.08 µM)",90.1%
7,"CS(=O)(=O)c1ccc(C(=O)Nc2ccc(Cl)c(-c3ccccn3)c2)c(Cl)c1 [vismodegib] + CCN(CC)CCCCNc1ncc2cc(-c3cc(OC)cc(OC)c3)c(NC(=O)NC(C)(C)C)nc2n1 [PD173074] (first compound 1 µM, partner dose 0.1 µM)",114%
8,"CCCS(=O)(=O)Nc1ccc(F)c(C(=O)c2c[nH]c3ncc(Cl)cc23)c1F + N#Cc1c(O)c2c(-c3ccc(-c4ccccc4O)cc3)csc2[nH]c1=O [A769662] (first compound 0.08 µM, partner dose 2 µM)",104%
9,"CCCS(=O)(=O)Nc1ccc(F)c(C(=O)c2c[nH]c3ncc(Cl)cc23)c1F + COc1ccc2c(c1)CCC1C2CCC2(C)C(NCCCCCCN3C(=O)C=CC3=O)CCC12 [U73122] (first compound 0.08 µM, partner dose 0.4 µM)",108%
10,"CN(c1ncccc1CNc1nc(Nc2ccc3c(c2)CC(=O)N3)ncc1C(F)(F)F)S(C)(=O)=O + O=S(=O)(c1ccccc1)N(CC(F)(F)F)c1ccc(C(O)(C(F)(F)F)C(F)(F)F)cc1 [T0901317] (first compound 0.08 µM, partner dose 1.4 µM)",85%
11,"CCCS(=O)(=O)Nc1ccc(F)c(C(=O)c2c[nH]c3ncc(Cl)cc23)c1F + O=C1NC(=O)/C(=C/c2ccc(-c3ccc(F)cc3O)o2)S1 [AS252424] (first compound 0.08 µM, partner dose 1 µM)",106%
12,"NC1(c2ccc(-c3nc4ccn5c(=O)[nH]nc5c4cc3-c3ccccc3)cc2)CCC1 + COc1cc2ncnc(Nc3ccc(Oc4ccccc4)cc3)c2cc1OC [SrcI1] (first compound 0.4 µM, partner dose 2 µM)",80.8%
13,"C=C(c1ccc(C(=O)O)cc1)c1cc2c(cc1C)C(C)(C)CCC2(C)C [Bexarotene] + COc1cc2ncnc(Nc3ccc(Oc4ccccc4)cc3)c2cc1OC [SrcI1] (first compound 2 µM, partner dose 2 µM)",115%
14,"C=C(c1ccc(C(=O)O)cc1)c1cc2c(cc1C)C(C)(C)CCC2(C)C [Bexarotene] + O=S(=O)(c1ccccc1)N(CC(F)(F)F)c1ccc(C(O)(C(F)(F)F)C(F)(F)F)cc1 [T0901317] (first compound 2 µM, partner dose 1.4 µM)",105%
15,"C=C(c1ccc(C(=O)O)cc1)c1cc2c(cc1C)C(C)(C)CCC2(C)C [Bexarotene] + Oc1cc(-c2nc(-c3ccccc3)[nH]c2-c2ccncc2)ccc1Cl [L779450] (first compound 2 µM, partner dose 0.2 µM)",83.6%
16,"CN(c1ncccc1CNc1nc(Nc2ccc3c(c2)CC(=O)N3)ncc1C(F)(F)F)S(C)(=O)=O + COc1ccc2c(c1)CCC1C2CCC2(C)C(NCCCCCCN3C(=O)C=CC3=O)CCC12 [U73122] (first compound 0.08 µM, partner dose 0.4 µM)",95.4%
17,"CCCS(=O)(=O)Nc1ccc(F)c(C(=O)c2c[nH]c3ncc(Cl)cc23)c1F + CCCCCCCCCCCC1=C(O)C(=O)C=C(O)C1=O [Embelin] (first compound 0.08 µM, partner dose 1.2 µM)",86.4%

row,SMILES,cell count
1,"CN(c1ncccc1CNc1nc(Nc2ccc3c(c2)CC(=O)N3)ncc1C(F)(F)F)S(C)(=O)=O + Oc1nc(-c2ccc(C(F)(F)F)cc2)nc2c1CSCC2 [XAV939] (first compound 0.08 µM, partner dose 2 µM)",102%
2,"NC1(c2ccc(-c3nc4ccn5c(=O)[nH]nc5c4cc3-c3ccccc3)cc2)CCC1 + COc1ccc2c(c1)CCC1C2CCC2(C)C(NCCCCCCN3C(=O)C=CC3=O)CCC12 [U73122] (first compound 0.4 µM, partner dose 0.4 µM)",81.7%
3,"C=C(c1ccc(C(=O)O)cc1)c1cc2c(cc1C)C(C)(C)CCC2(C)C [Bexarotene] + O=C1NC(=O)/C(=C/c2ccc(-c3ccc(F)cc3O)o2)S1 [AS252424] (first compound 2 µM, partner dose 1 µM)",102%
4,"CN(c1ncccc1CNc1nc(Nc2ccc3c(c2)CC(=O)N3)ncc1C(F)(F)F)S(C)(=O)=O + COc1cc(N2CCC(N3CCN(C)CC3)CC2)ccc1Nc1ncc(Cl)c(Nc2ccccc2S(=O)(=O)C(C)C)n1 [NVP-TAE684] (first compound 0.08 µM, partner dose 0.08 µM)",115%
5,"CN(c1ncccc1CNc1nc(Nc2ccc3c(c2)CC(=O)N3)ncc1C(F)(F)F)S(C)(=O)=O + O=c1cc(-c2cccc3c2Sc2ccccc2S3)oc(N2CCOCC2)c1 [KU55933] (first compound 0.08 µM, partner dose 1 µM)",126%
6,"CN(c1ncccc1CNc1nc(Nc2ccc3c(c2)CC(=O)N3)ncc1C(F)(F)F)S(C)(=O)=O + N#Cc1c(O)c2c(-c3ccc(-c4ccccc4O)cc3)csc2[nH]c1=O [A769662] (first compound 0.08 µM, partner dose 2 µM)",103%
7,"CCCS(=O)(=O)Nc1ccc(F)c(C(=O)c2c[nH]c3ncc(Cl)cc23)c1F + Oc1cc(-c2nc(-c3ccccc3)[nH]c2-c2ccncc2)ccc1Cl [L779450] (first compound 0.08 µM, partner dose 0.2 µM)",99.8%
8,"NC1(c2ccc(-c3nc4ccn5c(=O)[nH]nc5c4cc3-c3ccccc3)cc2)CCC1 + O=C(O)C(=O)Nc1sc2c(c1C(=O)O)CCNC2 [TCS401] (first compound 0.4 µM, partner dose 1.66667 µM)",82.3%
9,"CN(c1ncccc1CNc1nc(Nc2ccc3c(c2)CC(=O)N3)ncc1C(F)(F)F)S(C)(=O)=O + Cn1cc(/C=C2\C(=O)Nc3cccnc32)c2ccccc21 [GW441756] (first compound 0.08 µM, partner dose 0.4 µM)",108%
10,"CS(=O)(=O)c1ccc(C(=O)Nc2ccc(Cl)c(-c3ccccn3)c2)c(Cl)c1 [vismodegib] + COc1cc2ncnc(Nc3ccc(Oc4ccccc4)cc3)c2cc1OC [SrcI1] (first compound 1 µM, partner dose 2 µM)",125%
11,"NC1(c2ccc(-c3nc4ccn5c(=O)[nH]nc5c4cc3-c3ccccc3)cc2)CCC1 + COc1ccc(-c2ccc3c(N4CCOCC4)nc(N4C[C@@H](C)O[C@@H](C)C4)nc3n2)cc1CO [KU0063794] (first compound 0.4 µM, partner dose 0.02 µM)",78.7%
12,"CN(c1ncccc1CNc1nc(Nc2ccc3c(c2)CC(=O)N3)ncc1C(F)(F)F)S(C)(=O)=O + O=C1NC(=O)/C(=C/c2ccc(-c3ccc(F)cc3O)o2)S1 [AS252424] (first compound 0.08 µM, partner dose 1 µM)",90%
13,"CS(=O)(=O)c1ccc(C(=O)Nc2ccc(Cl)c(-c3ccccn3)c2)c(Cl)c1 [vismodegib] + COc1ccc(COc2ccc(Cc3cnc(N)nc3N)cc2OC)cc1 [GW2580] (first compound 1 µM, partner dose 1 µM)",113%
14,"CS(=O)(=O)c1ccc(C(=O)Nc2ccc(Cl)c(-c3ccccn3)c2)c(Cl)c1 [vismodegib] + COc1ccc2c(c1)CCC1C2CCC2(C)C(NCCCCCCN3C(=O)C=CC3=O)CCC12 [U73122] (first compound 1 µM, partner dose 0.4 µM)",103%
15,"NC1(c2ccc(-c3nc4ccn5c(=O)[nH]nc5c4cc3-c3ccccc3)cc2)CCC1 + Cn1cc(/C=C2\C(=O)Nc3cccnc32)c2ccccc21 [GW441756] (first compound 0.4 µM, partner dose 0.4 µM)",97.3%
16,"C=C(c1ccc(C(=O)O)cc1)c1cc2c(cc1C)C(C)(C)CCC2(C)C [Bexarotene] + O=C(Nc1ccccc1)c1cc([N+](=O)[O-])ccc1Cl [GW9662] (first compound 2 µM, partner dose 2 µM)",99.9%
